According to PubChem BioAssay (NCATS):
Several values for one entry are separate records, joined by “and”; a condition that tells them apart may be missing. Identical values can stand only once. The shares of active, inactive and inconclusive entries below differ from those in the screen. For some assays here: A potency beside an inconclusive call is a rough fit, not a confirmed value. More than one record can exist for a structure, and the calls need not agree. Activity calls are given as the source filed them. Calls come from the whole dose curve; as a rule, active = well fitted curve in the direction sought with a large enough effect; inconclusive = small, poorly fitted or top-dose-only effect, or another doubt; inactive = no such curve, though single readings can be large; an effect the other way counts as inactive or inconclusive.

Assays:
HEK293 = test: Cytotoxic Profiling of Annotated Libraries Using Quantitative High-Throughput Screening (AID 1296008); conditions: Five cell lines viability, CellTiter-Glo ATP luminescence, 48-72 h; max response: stronger effect = lower value; note: nearly all actives have a fitted effect of over 60% in size
Summary of the method: (§1)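 Cells exposed to compounds for 48 or 72 hr at 37 degrees Celsius. Viability read as ATP-coupled luminescence with CellTiter-Glo after 10 min at room temperature.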

NIH3T3 = test: as above; conditions: Five cell lines viability, CellTiter-Glo ATP luminescence, 48-72 h; max response: stronger effect = lower value
Summary of the method: as §1

SKOV3 = test: Primary qHTS to identify gynecologic anti-cancer compounds using libraries of approved drugs and bioactive compounds (AID 1345084); conditions: Gynecologic cancer cell panel viability, ATPlite luminescence, 48 h; series mostly up to 57.5 µM; note: nearly all actives have a fitted effect of over 55% in size
Summary of the method: (§2)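 Five-concentration response, 48 h; readout is ATP-driven luciferase luminescence.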

MKL-2 = test: qHTS assay to identify novel small-molecules to repurpose for Merkel cell carcinoma treatment (AID 1296009); conditions: MCC and control cell lines, CellTiter-Glo viability, 72 h; activity change, negative = cytotoxicity: at 46 µM (top of the series); note: nearly all actives have a fitted effect of over 60% in size
Summary of the method: (§3)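 Cells were incubated with compound for 72 hr at 37 degree celsius before CellTiter-Glo addition. Luminescence was normalized with no-cell wells as full cytotoxicity and DMSO as baseline.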

UISO = test: as above; conditions: MCC and control cell lines, CellTiter-Glo viability, 72 h; series mostly up to 46 µM
Summary of the method: as §3

WaGa = test: as above; conditions: MCC and control cell lines, CellTiter-Glo viability, 72 h; series mostly up to 46 µM
Summary of the method: as §3

OV90 = test: Primary qHTS to identify gynecologic anti-cancer compounds using libraries of approved drugs and bioactive compounds (AID 1345084); conditions: Gynecologic cancer cell panel viability, ATPlite luminescence, 48 h; series mostly up to 57.5 µM; note: nearly all actives have a fitted effect of over 55% in size
Summary of the method: as §2

PA-1 = test: as above; conditions: Gynecologic cancer cell panel viability, ATPlite luminescence, 48 h; series mostly up to 57.5 µM
Summary of the method: as §2

MCC-26 = test: qHTS assay to identify novel small-molecules to repurpose for Merkel cell carcinoma treatment (AID 1296009); conditions: MCC and control cell lines, CellTiter-Glo viability, 72 h; activity change, negative = cytotoxicity: at 46 µM (top of the series); note: nearly all actives have a fitted effect of over 60% in size
Summary of the method: as §3

MKL-1 = test: as above; conditions: MCC and control cell lines, CellTiter-Glo viability, 72 h; series mostly up to 46 µM
Summary of the method: as §3

CAOV3 = test: Primary qHTS to identify gynecologic anti-cancer compounds using libraries of approved drugs and bioactive compounds (AID 1345084); conditions: Gynecologic cancer cell panel viability, ATPlite luminescence, 48 h; series mostly up to 57.5 µM; note: nearly all actives have a fitted effect of over 55% in size
Summary of the method: as §2

CASKI = test: as above; conditions: Gynecologic cancer cell panel viability, ATPlite luminescence, 48 h; series mostly up to 57.5 µM
Summary of the method: as §2

Es-2 = test: as above; conditions: Gynecologic cancer cell panel viability, ATPlite luminescence, 48 h; series mostly up to 57.5 µM
Summary of the method: as §2

Hek293T = test: as above; conditions: Gynecologic cancer cell panel viability, ATPlite luminescence, 48 h, control line for the selectivity index; series mostly up to 57.5 µM
Summary of the method: as §2

JEG-3 = test: as above; conditions: Gynecologic cancer cell panel viability, ATPlite luminescence, 48 h; series mostly up to 57.5 µM
Summary of the method: as §2

MCC-13 = test: qHTS assay to identify novel small-molecules to repurpose for Merkel cell carcinoma treatment (AID 1296009); conditions: MCC and control cell lines, CellTiter-Glo viability, 72 h; series mostly up to 46 µM; note: nearly all actives have a fitted effect of over 60% in size
Summary of the method: as §3

HaCat = test: Cytotoxic Profiling of Annotated Libraries Using Quantitative High-Throughput Screening (AID 1296008); conditions: Five cell lines viability, CellTiter-Glo ATP luminescence, 48-72 h; max response: stronger effect = lower value; note: nearly all actives have a fitted effect of over 60% in size
Summary of the method: as §1

HeLa = test: Primary qHTS to identify gynecologic anti-cancer compounds using libraries of approved drugs and bioactive compounds (AID 1345084); conditions: Gynecologic cancer cell panel viability, ATPlite luminescence, 48 h; series mostly up to 57.5 µM; note: nearly all actives have a fitted effect of over 55% in size
Summary of the method: as §2
% is set by controls: 0 for no effect and ±100 for the full control effect; potency is the fitted concentration of half-maximal effect; tags give direction and shape of the fitted curve.

## CN(C)[C@@H]1C(=O)C(C(=O)NCN2CCCC2)=C(O)[C@@]2(O)C(=O)C3=C(O)c4c(O)cccc4[C@@](C)(O)C3C[C@@H]12 (stereo not given in full)
HEK293
  Potency: inconclusive: 33.5 µM [inhibitor, single point]
NIH3T3
  max response: inactive: 1.26%
SKOV3
  Potency: inactive

## CO[C@H]1O[C@@H]2O[C@@]3(C)CC[C@@H]4[C@@H](C)CC[C@@H]([C@H]1C)[C@@]24OO3
HEK293
  Potency: inconclusive: 13.2 µM [inhibitor, partial curve]
MKL-2
  Potency: inconclusive: 8.33 µM [inhibitor, partial curve]
UISO
  Potency: inconclusive: 18.7 µM [inhibitor, partial curve, poor fit]
WaGa
  Potency: active: 20.9 µM

## CCCCC/C=C\C/C=C\CCCCCCCC(=O)NC(C)c1ccccc1 (stereo not given)
HEK293
  Potency: inconclusive: 26.6 µM [inhibitor, single point]
MKL-2
  Potency: inconclusive: 29.9 µM [inhibitor, single point]
OV90
  Potency: inconclusive: 12.6 µM [cytotoxic, partial curve]
PA-1
  Potency: inactive
SKOV3
  Potency: inconclusive: 39.8 µM [cytotoxic, single point]

## O=c1[nH]c2ccccc2n1CCCN1CCN(C(c2ccccc2)c2ccccc2)CC1
HEK293
  Potency: active: 16.8 µM
MCC-26
  Potency: inactive
MKL-1
  Potency: inconclusive: 33.5 µM [inhibitor, single point]
MKL-2
  Potency: inconclusive: 16.8 µM [inhibitor, partial curve, poor fit]
UISO
  Potency: inconclusive: 26.6 µM [inhibitor, single point]
WaGa
  Potency: inconclusive: 29.9 µM [inhibitor, single point]
CAOV3
  Potency: inconclusive: 31.6 µM [cytotoxic, single point]
CASKI
  Potency: inconclusive: 20 µM [cytotoxic, single point]
Es-2
  Potency: inconclusive: 39.8 µM [cytotoxic, single point]
Hek293T
  Potency: inconclusive: 31.6 µM [cytotoxic, single point]
OV90
  Potency: inconclusive: 28.2 µM [cytotoxic, single point]
PA-1
  Potency: inconclusive: 39.8 µM [cytotoxic, single point]
SKOV3
  Potency: inconclusive: 25.1 µM [cytotoxic, single point]

## CCCCc1oc2ccccc2c1C(=O)c1cc(I)c(OCCN(CC)CC)c(I)c1
HEK293
  Potency: inconclusive: 29.9 µM [inhibitor, single point]
MKL-1
  Potency: inconclusive: 26.4 µM [inhibitor, single point] and inconclusive: 15 µM [inhibitor, partial curve]
MKL-2
  Potency: inconclusive: 23.5 µM [inhibitor, single point] and active: 13.3 µM
WaGa
  Potency: inconclusive: 33.5 µM [inhibitor, single point]
JEG-3
  Potency: inactive
SKOV3
  Potency: inconclusive: 1.41 µM [cytotoxic, single point]

## Cc1ccc(S(=O)(=O)NC(=O)NC2CCCCC2)cc1
HEK293
  max response: inactive: 2.4%
MKL-2
  Potency: inactive

## O=C(O)C=Cc1ccc(O)c(O)c1
HEK293
  Potency: inconclusive: 37.2 µM [inhibitor, single point]
MCC-13
  Potency: inconclusive: 29.6 µM [inhibitor, single point]
MCC-26
  Potency: inconclusive: 20.9 µM [inhibitor, single point]
MKL-1
  Potency: inconclusive: 23.5 µM [inhibitor, single point]
MKL-2
  Potency: inconclusive: 26.4 µM [inhibitor, single point]
UISO
  Potency: inconclusive: 29.6 µM [inhibitor, single point]
WaGa
  Potency: inconclusive: 23.5 µM [inhibitor, single point]

## O=C(CCCl)NCc1ccccc1
HEK293
  max response: inactive: -4.62%
MCC-13
  Potency: inactive
MKL-1
  Potency: inactive

## C[C@H](Cc1ccc(O)c(O)c1)[C@@H](C)Cc1ccc(O)c(O)c1
HEK293
  Potency: inconclusive: 37.2 µM [inhibitor, single point]
MCC-26
  Potency: inactive
UISO
  Potency: inconclusive: 16.6 µM [inhibitor, partial curve]
WaGa
  Potency: active: 18.7 µM

## OCCC#Cc1nc(-c2ccc(F)cc2)c(-c2ccncc2)n1CCCc1ccccc1
HEK293
  Potency: inconclusive: 37.2 µM [inhibitor, single point]
MKL-2
  Potency: inconclusive: 13.2 µM [inhibitor, partial curve, poor fit]
WaGa
  Potency: inconclusive: 23.5 µM [inhibitor, single point]

## OC(CN1CCC(Cc2ccc(F)cc2)CC1)c1ccc(Cl)cc1 (stereo not given)
HEK293
  max response: inactive: -10.6% and inactive: 0.0097%
UISO
  Potency: inconclusive: 23.7 µM [inhibitor, partial curve, poor fit] and inactive
WaGa
  Potency: inactive

## CCCCC(CC)CN1CN(CC(CC)CCCC)CC(C)(N)C1 (stereo not given)
HEK293
  Potency: inconclusive: 29.9 µM [inhibitor, single point]
MKL-2
  Potency: inconclusive: 21.1 µM [inhibitor, single point]
UISO
  Potency: inconclusive: 33.5 µM [inhibitor, single point]
PA-1
  Potency: inconclusive: 3.16 µM [rising, partial curve, poor fit]

## COc1ccc(C=CC(=O)Nc2ccccc2C(=O)O)cc1OC
HEK293
  Potency: inconclusive: 20.9 µM [inhibitor, single point]
MKL-1
  Potency: inactive

## CN(C)CCCSc1ccccc1NC(=O)/C=C/c1ccccc1
HEK293
  Potency: inconclusive: 33.5 µM [inhibitor, single point]
MKL-1
  Potency: inactive
OV90
  Potency: inconclusive: 35.5 µM [cytotoxic, partial curve, poor fit]

## CC(=O)O[C@]1(C(C)=O)CC[C@H]2[C@@H]3C=C(C)C4=CC(=O)CC[C@]4(C)[C@@H]3CC[C@@]21C
HEK293
  max response: inactive: -9.75%
MKL-2
  Potency: active: 2.35 µM
UISO
  Potency: inconclusive: 23.5 µM [inhibitor, single point]
WaGa
  Potency: active: 1.87 µM

## C[C@H](NC(=O)[C@@H](O)c1cc(F)cc(F)c1)C(=O)N[C@@H]1C(=O)N(C)c2ccccc2-c2ccccc21
HEK293
  Potency: inconclusive: 20.9 µM [inhibitor, single point]
MCC-26
  Potency: inactive
MKL-1
  Potency: inactive
UISO
  Potency: inactive
WaGa
  Potency: inactive

## CC(C)C(=O)Nc1ccc([N+](=O)[O-])c(C(F)(F)F)c1
HEK293
  Potency: inconclusive: 33.5 µM [inhibitor, single point] and inconclusive: 23.5 µM [inhibitor, partial curve]
MKL-1
  Potency: inconclusive: 26.4 µM [inhibitor, single point]
MKL-2
  Potency: inconclusive: 29.9 µM [inhibitor, single point]
WaGa
  Potency: inconclusive: 18.8 µM [inhibitor, single point] and inconclusive: 37.2 µM [inhibitor, single point]
CAOV3
  Potency: inactive
Hek293T
  Potency: inconclusive: 39.8 µM [cytotoxic, single point]
JEG-3
  Potency: inconclusive: 35.5 µM [cytotoxic, single point]
OV90
  Potency: inconclusive: 31.6 µM [cytotoxic, partial curve, poor fit]
PA-1
  Potency: inconclusive: 39.8 µM [cytotoxic, single point]
SKOV3
  Potency: inconclusive: 39.8 µM [cytotoxic, partial curve, poor fit]

## CC(C)Cc1ccc(C(C)C(=O)O)cc1 (stereo not given)
HEK293
  max response: inactive: 1.58% and inactive: -3.42%
MKL-2
  Potency: inactive
CAOV3
  Potency: inconclusive: 10 µM [rising, partial curve]
SKOV3
  Potency: inconclusive: 8.91 µM [rising, partial curve]

## CCc1ccc(C=C2SC(=S)NC2=O)cc1
HaCat
  max response: inactive: -1.5%

## Cc1[nH]c(=O)c(C#N)cc1-c1ccc2nccn2c1
HEK293
  Potency: inconclusive: 37.2 µM [inhibitor, single point]
SKOV3
  Potency: inactive

## CC1=C(C)C(=O)C(C(CCCCCC(=O)O)c2ccccc2)=C(C)C1=O (stereo not given)
HaCat
  max response: inactive: -5.06%
  outcome: inactive
MKL-2
  Potency: active: 23.7 µM
WaGa
  Potency: inconclusive: 26.6 µM [inhibitor, partial curve, poor fit]

## O=C(O)Cc1ccc(-c2ccccc2)cc1
HaCat
  max response: inactive: -10.6%

## CC(=O)CC(c1ccccc1)c1c(O)c2ccccc2oc1=O (stereo not given)
HEK293
  outcome: inactive
PA-1
  Potency: inconclusive: 7.08 µM [rising, single point]
SKOV3
  Potency: inconclusive: 0.891 µM [rising, full curve, poor fit]

## C[C@@H]1CN(Cc2ccc(F)cc2)[C@@H](C)CN1C(=O)c1cc2c(C(=O)C(=O)N(C)C)cn(C)c2cc1Cl
HEK293
  Potency: inconclusive: 37.2 µM [inhibitor, single point] and inconclusive: 25.9 µM [inhibitor, single point]
WaGa
  Potency: inconclusive: 11.8 µM [inhibitor, single point]

## CCCCCCCCCCCCCCCC(=O)OC(C)C
HEK293
  max response: inactive: -10.5%
JEG-3
  Potency: inactive
OV90
  Potency: inactive

## CC(C)(C)NC[C@H](O)COc1cccc2c1CCCC2=O
HEK293
  Potency: inconclusive: 26.6 µM [inhibitor, single point]
SKOV3
  Potency: inconclusive: 3.16 µM [rising, single point]

## Cc1cc(C(C)(C)C)c(O)c(C)c1CC1=NCCN1
HEK293
  Potency: active: 9.35 µM and inconclusive: 29.1 µM [inhibitor, single point]
HeLa
  Potency: inactive
OV90
  Potency: inconclusive: 20 µM [cytotoxic, single point]

## CN(C)CCn1nnnc1SCC1=C(C(=O)O)N2C(=O)[C@@H](NC(=O)Cc3csc(N)n3)[C@H]2SC1
HEK293
  max response: inactive: -4.49%
JEG-3
  Potency: inactive

## Cc1nn(-c2ccccc2)c(C)c1/C=N/N1CCN(Cc2ccccc2)CC1
HEK293
  Potency: inconclusive: 18.4 µM [inhibitor, partial curve]
SKOV3
  Potency: inactive
